Here are results for 12 compounds from PubChem BioAssay (NCI).

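Dose response: 5 concentrations. Exposure: 48 h. Format: 96-well plates. Endpoint: linear interpolation; highest concentration if not reached. GI50: concentration for 50% inhibition of growth. The concentration for full growth arrest is given as TGI.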

The test system of this assay is NCI-H322M lung. The assay can be described thus: DTP human tumour cell line panel, 48 h.
In turn, `CC(C)[Si](Oc1ccc(CC2N(C(=O)c3ccc([N+](=O)[O-])cc3)C(CCc3ccccc3)CC2(C)C=O)cc1)(C(C)C)C(C)C` (stereo not drawn) came in with a total growth inhibition concentration (TGI) of more than 100 µM.
`c1ccc(CC(Nc2cccnc2)c2ccccc2)cc1` (stereo not drawn) showed a total growth inhibition concentration (TGI) of more than 100 µM.
Regarding `CC1CC(=O)Nc2ccccc2N1C(=O)C1CC1` (stereo not drawn), the TGI was more than 100 µM.
In the case of `COC(=O)C1Cc2cc3c(cc2C1)CCC3`, the TGI is more than 100 µM.
As to `C[C@@H](c1ccccc1)N1CO[C@@]2(C#Cc3ccc4c(c3)OCO4)CCC[C@@H]12`, the concentration for total growth inhibition (TGI) stood at 59 µM.
In turn, `O=C1CCC2COc3ccc(O)c1c32` (stereo not drawn) had a TGI of more than 100 µM.
`NC1NCCC(=O)N1CCc1c[nH]c2ccccc12` (stereo not drawn) displayed a concentration for total growth inhibition (TGI) of 63.4 µM.
`CN(C)c1ccc(/C=c2/c3cc(O)ccc3n3c2cc(-c2ccccc2)[n+]3C)cc1`: the GI50 was 3.66 µM.
As to `Nc1ncnc2c1ccn2-c1cccc(NC(=O)c2ccc(N3CCOCC3)c(C(F)(F)F)c2)c1`, the GI50 is 3.01 µM and the TGI turned out to be 9.6 µM.
Consider `C=C1CC[C@@H]2[C@](C)(COC(=O)CCC(=O)O)CCC[C@@]2(C)[C@@H]1CCC1=CC(=O)OC1`, for which the TGI is more than 100 µM.
`CC(C)C(=O)/C=C/c1c(Cl)cccc1Cl` registered a total growth inhibition concentration (TGI) of 17.4 µM.
In turn, `[O-][N+]1=C2CCC/C(=N/O)C2(O)C2CCCCC21N1CCOCC1` (stereo not drawn) returned a total growth inhibition concentration (TGI) of more than 100 µM.

The term TGI denotes the concentration giving total growth inhibition. Lower therefore signals greater sensitivity of the cells. Usually GI50 stands for the concentration giving 50% growth inhibition.
